The list shows a part of the results. Repeats are few or missing, and single values can be far off.
What follows are molecules tested on MEL-HO (assay: cell count relative to DMSO control; melanoma cells; higher = more viable cells). Conditions: library dose: standard library concentration; 72 h.
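Further: cells treated in 1,536-well plates, then fixed and DAPI-stained, with nuclei counted from automated high-throughput microscope images.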

| Structure (SMILES) | cell count [%] |
| --- | --- |
| COc1cc2c(Oc3ccc4[nH]c(C)cc4c3F)ncnc2cc1OCCCN1CCCC1 [cediranib] + N#Cc1c(O)c2c(-c3ccc(-c4ccccc4O)cc3)csc2[nH]c1=O [A769662] (first compound 2 µM, partner dose 10 µM) | 79.5 |
| CC(C)(C)c1cnc(CSc2cnc(NC(=O)C3CCNCC3)s2)o1 + CN(C)S(=O)(=O)c1ccc2c(c1)/C(=C/c1cc3c([nH]1)CCCC3)C(=O)N2 [SU6656] (first compound 0.05 µM, partner dose 2 µM) | 77.1 |
| COc1cc2c(Oc3ccc4[nH]c(C)cc4c3F)ncnc2cc1OCCCN1CCCC1 [cediranib] + COc1ccc(COc2ccc(Cc3cnc(N)nc3N)cc2OC)cc1 [GW2580] (first compound 2 µM, partner dose 5 µM) | 98.2 |
| CCCCCCCCc1ccc(CCC(N)(CO)CO)cc1 [fingolimod] + OCCn1cc(-c2cnc3nnn(Cc4ccc5ncccc5c4)c3n2)cn1 [PF04217903] (first compound 10 µM, partner dose 5 µM) | 29.6 |
| NC(=O)c1ccc(N(C(N)=O)c2c(F)cccc2F)nc1-c1ccc(F)cc1F + Clc1ccc(Nc2nnc(Cc3ccncc3)c3ccccc23)cc1 [vatalanib] (first compound 2 µM, partner dose 10 µM) | 79.2 |
| CCc1ccc(CCOc2ccc(CC3SC(=O)NC3=O)cc2)nc1 (centres undefined) [pioglitazone] + CC(C)CCN1c2nc(Nc3cc(F)c(O)c(F)c3)ncc2N(C)C(=O)C1C [BID1870] (first compound 10 µM, partner dose 1 µM) | 69.8 |
| Cc1ccc(NC(=O)c2cccc(N(C)C)c2)cc1NC(=O)c1ccc(O)cc1 + CN(C)S(=O)(=O)c1ccc2c(c1)/C(=C/c1cc3c([nH]1)CCCC3)C(=O)N2 [SU6656] (first compound 10 µM, partner dose 2 µM) | 68.4 |
| NC(=O)c1ccc(N(C(N)=O)c2c(F)cccc2F)nc1-c1ccc(F)cc1F + Cc1cc(N2CCOCC2)cc2[nH]c(-c3c(NC[C@@H](O)c4cccc(Cl)c4)cc[nH]c3=O)nc12 [BMS536924] (first compound 2 µM, partner dose 1 µM) | 102 |
| Cc1ccc(NC(=O)c2cccc(N(C)C)c2)cc1NC(=O)c1ccc(O)cc1 + CCCCCCCCCCCC1=C(O)C(=O)C=C(O)C1=O [Embelin] (first compound 10 µM, partner dose 6 µM) | 75 |
| CN(NC(=O)CC(=O)NN(C)C(=S)c1ccccc1)C(=S)c1ccccc1 + Cn1cc(/C=C2\C(=O)Nc3cccnc32)c2ccccc21 [GW441756] (first compound 0.03 µM, partner dose 2 µM) | 38.2 |
| CCCCCCCCc1ccc(CCC(N)(CO)CO)cc1 [fingolimod] + O=C(O)[C@@H]1[O][Sb](=[O])([O][Sb]2(=[O])[O][C@H]([C@H](O)CO)[C@H](O)[C@H](C(=O)O)[O]2)[O][C@H]([C@H](O)CO)[C@@H]1O [stibogluconate] (first compound 10 µM, partner dose 10 µM) | 84.3 |
| Cc1ccc(NC(=O)c2cccc(N(C)C)c2)cc1NC(=O)c1ccc(O)cc1 + COc1cc(N2CCC(N3CCN(C)CC3)CC2)ccc1Nc1ncc(Cl)c(Nc2ccccc2S(=O)(=O)C(C)C)n1 [NVP-TAE684] (first compound 10 µM, partner dose 0.4 µM) | 87.3 |
| COc1cc2c(Oc3ccc4[nH]c(C)cc4c3F)ncnc2cc1OCCCN1CCCC1 [cediranib] + COc1cc(N2CCC(N3CCN(C)CC3)CC2)ccc1Nc1ncc(Cl)c(Nc2ccccc2S(=O)(=O)C(C)C)n1 [NVP-TAE684] (first compound 2 µM, partner dose 0.4 µM) | 96.9 |
| COc1cc2c(Oc3ccc4[nH]c(C)cc4c3F)ncnc2cc1OCCCN1CCCC1 [cediranib] + Cn1cc(/C=C2\C(=O)Nc3cccnc32)c2ccccc21 [GW441756] (first compound 2 µM, partner dose 2 µM) | 110 |
| COc1cc2c(Oc3ccc4[nH]c(C)cc4c3F)ncnc2cc1OCCCN1CCCC1 [cediranib] + Oc1cc(-c2nc(-c3ccccc3)[nH]c2-c2ccncc2)ccc1Cl [L779450] (first compound 2 µM, partner dose 1 µM) | 79.5 |
| NC(=O)c1ccc(N(C(N)=O)c2c(F)cccc2F)nc1-c1ccc(F)cc1F + Cc1nc(Nc2ncc(C(=O)Nc3c(C)cccc3Cl)s2)cc(N2CCN(CCO)CC2)n1 [dasatanib] (first compound 2 µM, partner dose 0.02 µM) | 64.9 |
| CC(C)(C)c1cnc(CSc2cnc(NC(=O)C3CCNCC3)s2)o1 + c1cc(-c2cnn3cc(-c4ccc(OCCN5CCCCC5)cc4)cnc23)ccn1 [Dorsomorphin] (first compound 0.05 µM, partner dose 2 µM) | 39.7 |

| Structure (SMILES) | cell count [%] |
| --- | --- |
| CC(C)(C)c1cnc(CSc2cnc(NC(=O)C3CCNCC3)s2)o1 + C[C@@H]1CCN(C(=O)CC#N)C[C@@H]1N(C)c1ncnc2[nH]ccc12 [CP690550] (first compound 0.05 µM, partner dose 5 µM) | 92 |
| CC(C)(C)c1cnc(CSc2cnc(NC(=O)C3CCNCC3)s2)o1 + Oc1nc(-c2ccc(C(F)(F)F)cc2)nc2c1CSCC2 [XAV939] (first compound 0.05 µM, partner dose 10 µM) | 79.9 |
| NC(=O)c1ccc(N(C(N)=O)c2c(F)cccc2F)nc1-c1ccc(F)cc1F + C=C(c1ccc(C(=O)O)cc1)c1cc2c(cc1C)C(C)(C)CCC2(C)C [Bexarotene] (first compound 2 µM, partner dose 10 µM) | 100 |
| CCc1ccc(CCOc2ccc(CC3SC(=O)NC3=O)cc2)nc1 (centres undefined) [pioglitazone] + N#Cc1c(O)c2c(-c3ccc(-c4ccccc4O)cc3)csc2[nH]c1=O [A769662] (first compound 10 µM, partner dose 10 µM) | 93.6 |
| CC(C)(C)c1cnc(CSc2cnc(NC(=O)C3CCNCC3)s2)o1 + Cc1cc([N+](=O)[O-])ccc1NS(=O)(=O)c1cc(Cl)ccc1Cl [FH535] (first compound 0.05 µM, partner dose 5 µM) | 54.9 |
| NC(=O)c1ccc(N(C(N)=O)c2c(F)cccc2F)nc1-c1ccc(F)cc1F + CN(c1ncccc1CNc1nc(Nc2ccc3c(c2)CC(=O)N3)ncc1C(F)(F)F)S(C)(=O)=O [PF562271] (first compound 2 µM, partner dose 0.4 µM) | 84.3 |
| Cc1ccc(NC(=O)c2cccc(N(C)C)c2)cc1NC(=O)c1ccc(O)cc1 + Cc1cc(N2CCOCC2)cc2[nH]c(-c3c(NC[C@@H](O)c4cccc(Cl)c4)cc[nH]c3=O)nc12 [BMS536924] (first compound 10 µM, partner dose 1 µM) | 95.2 |
| Cc1ccc(NC(=O)c2cccc(N(C)C)c2)cc1NC(=O)c1ccc(O)cc1 + Cn1cc(/C=C2\C(=O)Nc3cccnc32)c2ccccc21 [GW441756] (first compound 10 µM, partner dose 2 µM) | 89.6 |
| CC(C)(C)c1cnc(CSc2cnc(NC(=O)C3CCNCC3)s2)o1 + OCCn1cc(-c2cnc3nnn(Cc4ccc5ncccc5c4)c3n2)cn1 [PF04217903] (first compound 0.05 µM, partner dose 5 µM) | 99.7 |
| NC(=O)c1ccc(N(C(N)=O)c2c(F)cccc2F)nc1-c1ccc(F)cc1F + CCCCCCCCc1ccc(CCC(N)(CO)CO)cc1 [fingolimod] (first compound 2 µM, partner dose 10 µM) | 5.55 |
| NC(=O)c1ccc(N(C(N)=O)c2c(F)cccc2F)nc1-c1ccc(F)cc1F + C[C@@H](Oc1cc(-c2cnn(C3CCNCC3)c2)cnc1N)c1c(Cl)ccc(F)c1Cl [Crizotinib] (first compound 2 µM, partner dose 1 µM) | 104 |
| CCCCCCCCc1ccc(CCC(N)(CO)CO)cc1 [fingolimod] + C=C(c1ccc(C(=O)O)cc1)c1cc2c(cc1C)C(C)(C)CCC2(C)C [Bexarotene] (first compound 10 µM, partner dose 10 µM) | 2.13 |
| NC(=O)c1ccc(N(C(N)=O)c2c(F)cccc2F)nc1-c1ccc(F)cc1F + O=C(O)c1ccc(-c2c[nH]c3ncc(-c4ccccc4)cc23)cc1C1CCCC1 [GSK650394] (first compound 2 µM, partner dose 0.8 µM) | 82.2 |
| CCCCCCCCc1ccc(CCC(N)(CO)CO)cc1 [fingolimod] + CS(=O)(=O)CCNCc1ccc(-c2ccc3ncnc(Nc4ccc(OCc5cccc(F)c5)c(Cl)c4)c3c2)o1 [lapatinib] (first compound 10 µM, partner dose 4 µM) | 0.393 |
| CC(C)(C)c1cnc(CSc2cnc(NC(=O)C3CCNCC3)s2)o1 + CN(NC(=O)CC(=O)NN(C)C(=S)c1ccccc1)C(=S)c1ccccc1 [STA4783] (first compound 0.05 µM, partner dose 0.03 µM) | 76.3 |
| CCCCCCCCc1ccc(CCC(N)(CO)CO)cc1 [fingolimod] + COc1ccc(Cl)c(Nc2nc3ccccc3nc2NS(=O)(=O)c2cccc(NC(=O)C(C)(C)N)c2)c1 [XL147] (first compound 10 µM, partner dose 4 µM) | 33.3 |
| CCCCCCCCc1ccc(CCC(N)(CO)CO)cc1 [fingolimod] + C[C@@H]1CCN(C(=O)CC#N)C[C@@H]1N(C)c1ncnc2[nH]ccc12 [CP690550] (first compound 10 µM, partner dose 5 µM) | 4.46 |
